Reference: patent US20100092429A1, “Composition” (Danisco A/S, priority 2006, published 2010)
Where two headings read alike, the source gives them in different places.

Key:
[1] = system: B. adolescentis DSM 20083; settings: Table 6 further experiment, 24 h, 1 w/v-% carbohydrate
Method: (§1) The prebiotics were dissolved in 10% concentrated stock solutions, sterilized either by filtration (0.2 μm Minisart NML, Sartorius AG, Germany) or by UV-radiation (30 s, 120 mJ/cm^2) (XL-1500 UV Crosslinker, Spectronics Corporation, US) depending on the length of the carbohydrate chains and stored at +4° C. in aerobic conditions. The tested bacterial strains and their growth media used in the cultivation (the medium in parentheses is the medium used in the first pre-cultivation) are shown in Table 2. Bifidobacteria, lactobacilli, and Strep. thermophilus were grown in MRS medium and other bacteria in TSB.
(§2) All cultures were stored at −70° C. in bead vials (Technical Service Consultants, UK). For the subcultures, bacteria were inoculated from two beads to 5 ml of their appropriate growth medium (Table 2). The precultures were grown from frozen stocks for 24-48 h at 37° C. under anaerobic conditions in appropriate media, until they were dim. Then the bacteria were inoculated further to MRS or TSB (Table 2) and incubated for another 24 h at 37° C. These suspensions were used for growth intensity measurements
(§3) Anaerobic growth was measured with an automatic on-line turbidometer (Bioscreen C, Labsystems, Finland), which records kinetic changes in the absorbance of the liquid samples in a multiwell plate. Each well of the plate was filled with 20 μl 10 w/v-% prebiotic solution in aerobic conditions, subsequently 180 μl 1 v/v-% early stationary phase test bacteria in its appropriate culture medium were added anaerobically. The control wells included only 200 μl 1 v/v-% early stationary phase test bacteria or the same medium used for culturing the bacteria in question. The final prebiotic concentration was 1 w/v-%.
(§4) All strains were incubated at 37° C. for 24 h and the absorbance (OD 600 nm) was measured every 30 min. Plates were shaken for 10 s before every measurement. Two different sets of experiments with five replicates were performed for each strain and carbohydrate combination.
(§5) The rate of bacterial growth on a single carbohydrate source was determined by calculating the area under the growth curve (24 h) from the absorbance results automatically processed by the software (BioLink, Version 5.07, Labsystems, UK). The similar analysis was performed by Jaskari et al. Appl. Microbiol. Biotechnol. 49 (1998) 175-181. The area under the growth curve was calculated for each well with the help of symmetric rectangles, which were drawn from absorbance values measured at a consecutive time points. This is illustrated in the FIG. 1.
(§6) All the areas from the measurement period (24 h, measurement in every 30 min) were summed up to get the area under the growth curve for the each well's growth curves. The growth in the control medium (basal growth medium without added carbohydrates) was subtracted from results as baseline growth (abs0). The variation between the parallel results of the each bacteria and prebiotic combination was calculated using the standard error of the mean (SE). The averages of the areas under the growth curve for ten parallel wells were used to calculate the SE as following: […]

B. breve Bb-03 = settings: Table 6 further experiment, 24 h, 1 w/v-% carbohydrate
Method: as §1, §2, §3, §4, §5, §6

B. infantis DSM 20088 = settings: Table 6 further experiment, 24 h, 1 w/v-% carbohydrate
Method: as §1, §2, §3, §4, §5, §6

B. longum DSM 20019 = settings: Table 6 further experiment, 24 h, 1 w/v-% carbohydrate
Method: as §1, §2, §3, §4, §5, §6

Bact. fragilis = settings: Table 10 second experiment, 24 h, 1 w/v-% carbohydrate
Method: as §1, §2, §3, §4, §5, §6

Bact. vulgatus = settings: Table 10 second experiment, 24 h, 1 w/v-% carbohydrate
Method: as §1, §2, §3, §4, §5, §6

[2] = system: Bifidobacterium lactis 420; settings: 24 h, 1 w/v-% carbohydrate
Method: as §1, §2, §3, §4, §5, §6

[3] = system: Bifidobacterium lactis BI-04; settings: 24 h, 1 w/v-% carbohydrate
Method: as §1, §2, §3, §4, §5, §6

[4] = system: Bifidobacterium lactis BI-07; settings: 24 h, 1 w/v-% carbohydrate
Method: as §1, §2, §3, §4, §5, §6

[5] = system: Bifidobacterium lactis Bb-12; settings: 24 h, 1 w/v-% carbohydrate
Method: as §1, §2, §3, §4, §5, §6

[6] = system: Bifidobacterium lactis DN 173 010; settings: 24 h, 1 w/v-% carbohydrate
Method: as §1, §2, §3, §4, §5, §6

[7] = system: Bifidobacterium lactis HN019 (Howaru); settings: 24 h, 1 w/v-% carbohydrate
Method: as §1, §2, §3, §4, §5, §6

[8] = system: Bifidobacterium longum 913; settings: 24 h, 1 w/v-% carbohydrate
Method: as §1, §2, §3, §4, §5, §6

[9] = system: Bifidobacterium longum KC-1; settings: 24 h, 1 w/v-% carbohydrate
Method: as §1, §2, §3, §4, §5, §6

E. coli O1:57 = settings: 24 h, 1 w/v-% carbohydrate
Method: as §1, §2, §3, §4, §5, §6

Eub. biforme = settings: Table 10 second experiment, 24 h, 1 w/v-% carbohydrate
Method: as §1, §2, §3, §4, §5, §6

Eub. limosum = settings: 24 h, 1 w/v-% carbohydrate
Method: as §1, §2, §3, §4, §5, §6

L. acidophilus NCFM 145 = settings: 24 h, 1 w/v-% carbohydrate
Method: as §1, §2, §3, §4, §5, §6

L. bulgaricus = settings: 24 h, 1 w/v-% carbohydrate
Method: as §1, §2, §3, §4, §5, §6

L. paracasei Lpc-37 = settings: 24 h, 1 w/v-% carbohydrate
Method: as §1, §2, §3, §4, §5, §6

L. rhamnosus HN001 = settings: 24 h, 1 w/v-% carbohydrate
Method: as §1, §2, §3, §4, §5, §6

Salm. typhimurium = settings: 24 h, 1 w/v-% carbohydrate
Method: as §1, §2, §3, §4, §5, §6

Staph. aureus = settings: 24 h, 1 w/v-% carbohydrate
Method: as §1, §2, §3, §4, §5, §6

Staph. epidermis = settings: 24 h, 1 w/v-% carbohydrate
Method: as §1, §2, §3, §4, §5, §6

Strep. thermophilus = settings: 24 h, 1 w/v-% carbohydrate
Method: as §1, §2, §3, §4, §5, §6

bifidum BB-02 = settings: Table 5, 24 h, 1 w/v-% carbohydrate
Method: as §1, §2, §3, §4, §5, §6

Compound: OC[C@H]1O[C@H](O)[C@H](O)[C@@H](O)[C@@H]1O [Glucose, Alpha-D-Glucose]
- average area under the growth curve without medium [1]: 1028
- average area under the growth curve without medium (B. breve Bb-03): 561
- average area under the growth curve without medium (B. infantis DSM 20088): 800
- average area under the growth curve without medium (B. longum DSM 20019): 1143
- average area under the growth curve without medium (Bact. fragilis): 226
- average area under the growth curve without medium (Bact. vulgatus): 410
- average area under the growth curve without medium ([2]; Table 5, lactis 420): 836
- average area under the growth curve without medium ([2]; Table 6 further experiment, B. lactis 420): 994
- average area under the growth curve without medium ([3]; Table 5, lactis BI-04): 629
- average area under the growth curve without medium ([3]; Table 6 further experiment, B. lactis BI-04): 951
- average area under the growth curve without medium ([4]; Table 5, lactis BI-07): 933
- average area under the growth curve without medium ([4]; Table 6 further experiment, B. lactis BI-07): 1072
- average area under the growth curve without medium ([5]; Table 5, lactis Bb-12): 495
- average area under the growth curve without medium ([5]; Table 6 further experiment, B. lactis Bb-12): 838
- average area under the growth curve without medium ([6]; Table 5, lactis Danone): 397
- average area under the growth curve without medium ([6]; Table 6 further experiment, B. lactis DN173010): 772
- average area under the growth curve without medium ([7]; Table 5, lactis Howaru): 978
- average area under the growth curve without medium ([7]; Table 6 further experiment, B. lactis HN019): 1062
- average area under the growth curve without medium ([8]; Table 5, longum 913): 443
- average area under the growth curve without medium ([8]; Table 6 further experiment, B. longum 913): 1317
- average area under the growth curve without medium ([9]; Table 5, longum KC-1): 553
- average area under the growth curve without medium ([9]; Table 6 further experiment, B. longum KC-1): 1194
- average area under the growth curve without medium (E. coli O1:57; Table 9 first experiment, E. coli O1:57): 701
- average area under the growth curve without medium (E. coli O1:57; Table 10 second experiment, E. coli): 769
- average area under the growth curve without medium (Eub. biforme): 235
- average area under the growth curve without medium (Eub. limosum; Table 9 first experiment, E. limosum): 131
- average area under the growth curve without medium (Eub. limosum; Table 10 second experiment, Eub. limosum): 677
- average area under the growth curve without medium (L. acidophilus NCFM 145; Table 7 first experiment, L. acidophilus): 1305
- average area under the growth curve without medium (L. acidophilus NCFM 145; Table 8 second experiment, L. acidophilus NCFM 145): 1099
- average area under the growth curve without medium (L. bulgaricus; Table 7 first experiment): 716
- average area under the growth curve without medium (L. bulgaricus; Table 8 second experiment): 909
- average area under the growth curve without medium (L. paracasei Lpc-37; Table 7 first experiment, L. paracasei): 761
- average area under the growth curve without medium (L. paracasei Lpc-37; Table 8 second experiment, L. paracasei Lpc-37): 877
- average area under the growth curve without medium (L. rhamnosus HN001; Table 7 first experiment, L. rhamnosus): 948
- average area under the growth curve without medium (L. rhamnosus HN001; Table 8 second experiment, L. rhamnosus HN001): 1041
- average area under the growth curve without medium (Salm. typhimurium; Table 9 first experiment, S. typhimurium): 819
- average area under the growth curve without medium (Salm. typhimurium; Table 10 second experiment, Salm. typhimurium): 744
- average area under the growth curve without medium (Staph. aureus; Table 9 first experiment, S. aureus): 500
- average area under the growth curve without medium (Staph. aureus; Table 10 second experiment, Staph. aureus): 247
- average area under the growth curve without medium (Staph. epidermis; Table 9 first experiment, S. epidermis): 497
- average area under the growth curve without medium (Staph. epidermis; Table 10 second experiment, Staph. epidermis): 594
- average area under the growth curve without medium (Strep. thermophilus; Table 7 first experiment, S. thermophilus): 425
- average area under the growth curve without medium (Strep. thermophilus; Table 8 second experiment, Strep. thermophilus): 1066
- average area under the growth curve without medium (bifidum BB-02): 512
